# Measured values as given in the supplement of paper PMC10338343.
# ± gives the standard deviation. Only a part is listed here, and it is no random draw.
# Test system: MIWI (PIWIL1) piRISC loaded with piRNA #1 (30 nt)
# Experiment: pre-steady-state target cleavage rate (min^-1); MIWI and MILI are mouse PIWI proteins and EfPiwi is from a freshwater sponge; tags in brackets are library labels; higher = faster piRNA-guided slicing of the target
# Conditions: guide: piRNA #1 5'p-UGAGGUAGUAGGUUGUAUAGUAUCCAGAGG; auxiliary factor: 500 nM mouse GTSF1
# In short: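 Cleave-'n-Seq: 1 nM active affinity-purified piRISC with one synthetic guide and 0.1 nM transcribed, DNA-blocked target RNA library were mixed, with or without 500 nM GTSF1 partner protein, in HEPES–potassium acetate buffer at 33 °C for 0–8 or 0–960 min. Uncleaved targets were sequenced and normalised to depth and to weakly complementary targets, three trials were pooled, and k3 was capped at 0.0001 min^-1. The pre-steady-state cleavage rate was fitted […].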
row,Sequence,pre-steady-state target cleavage rate
1,GGACUGGAUACUAUACAAGCUACUACCUCA,1.12 ± 0.06
2,GGAGACCUAACUAUACAACGUACUUCCUCA,0.0216 ± 0.007
3,GGAGACGAUACUAUACAACCUAGUACCUCA,0.564 ± 0.055
4,GGAGACCAUUCUAUACAACCUACUACCUCA,1.32 ± 0.1
5,GGAGAGGAUACUAUACAAGCUACUUCCUCA,0.265 ± 0.037
6,GGAGACGAUACUAUUCAACCUACUAGCUCA,0.248 ± 0.029
7,GGACUGGAUAGUAUACAUCCUACUACCUCA,0.52 ± 0.077
8,GGUCUGGAUUCUAUACAACCUAGUACCUCA,0.515 ± 0.067
9,GGAGAGGAUACUAUAGAACCUUCUACCUCA,0.104 ± 0.018
10,GGAGACCAUACUAUACAACCUAACUACCUCA,0.0261 ± 0.0051
11,GGAGACCUUACUAUACAACCUACUGCCUCA,0.883 ± 0.077
12,GCUCAGGAUACUAUACAACCUACAACCUCA,0.866 ± 0.076
13,GGACUCGAUACUAUACAACCUUCUACCUCA,0.666 ± 0.047
14,GGAGUGGAUACUAUACAACCUACUUCCUCA,0.0134 ± 0.0039
15,CCUCUGGAGACUAUACAACCUACUACCUCA,1.88 ± 0.16
16,CCUCUGGAUACUAUACAACCAUGUACCUCA,0.0134 ± 0.0039
17,GGAGACCAUACUAUACAACCUACUAGGUCA,0.0129 ± 0.0046
18,GGAGUGGAUACUAUACAAGCUACUACGUCA,0.254 ± 0.028
19,GGAGACCUAACUAUACAACCUAAUACCUCA,0.38 ± 0.042
20,CCUCUGGAUUCUAUACAACCUACAACCUCA,0.702 ± 0.041

row,Sequence,pre-steady-state target cleavage rate
1,GGAGACCUAUGAUAUGUUCCUCACUACCUCA,0.00272 ± 0.0015
2,GGACUGGUAUACUAUACAACCUACUACCUCA,1.68 ± 0.14
3,GGAGACCUAUGAUUAGAACCUACUACGUCA,< 0.0001
4,GGAGACGUUACUAUACAACCUACUAGCUCA,0.434 ± 0.047
5,GGAGAGGAUACUAUACAACCUAGUACGUCA,0.0287 ± 0.011
6,GGAGAGGAUACUAAACAACGUACUACCUCA,0.172 ± 0.023
7,GGAGACCUAUGAUUACAACCUAGAUGGAGA [g9:g17:cont:t1A],< 0.0001
8,GGAGACCUUAGUAUACUACCUACUACCUCA,0.0222 ± 0.0051
9,GGAGUGGUUAGUAUACAACCUACUACCUCA,0.605 ± 0.047
10,GGAGACCUAUCUAAACAACCUACUACCACA,0.0234 ± 0.0083
11,GGAGCGGAUACUAUACAACCUACUACCUCA,1.81 ± 0.13
12,GGAGACCUUAGUAAACAACCUACUACCUCA,0.00718 ± 0.0027
13,GGAGACCUAUGAUAACAACCUAGUACCUGA,< 0.0001
14,GGAGACCUAUGAAAUACAACCUACUACCUCA,0.00576 ± 0.0027
15,GGAGUGGAUACUAUACAACGUACUAGCUCA,0.0857 ± 0.017
16,GGAGUGCAUACUAUACAACCUUCUACCUCA,0.664 ± 0.041
17,CCUCUGGAAACUAUACAACCUACUUCCUCA,0.495 ± 0.058
18,CCUCUGGAAACUAUACAACCUACUACCUCA,1.97 ± 0.11
19,GCUCUGGAUACUAUACAACCUACUACCUA,1.37 ± 0.1
